Test [1] has as its target N-terminal PHOT1 fragment (PHOT1N), amino acids 1-619, MYTH fusion (Arabidopsis thaliana) (UniProt O48963). Briefly: two-hybrid; split-ubiquitin-based membrane yeast two hybrid (MYTH); phot parts as baits, SUMO proteins as preys; growth on SC-Leu-Trp-His with 5 mM 3-AT, 30°C, 4 d, in darkness or under blue light (about 20 µmol m^-2 s^-1, 455 nm).
Test [2] addresses N-terminal PHOT2 fragment (PHOT2N), amino acids 1-574, MYTH fusion (Arabidopsis thaliana) (UniProt P93025). The test is described as above.
Test [3] has as its target nGFP-PHOT1 (Arabidopsis thaliana) (UniProt O48963). Description: split reporter; BiFC with nGFP and cGFP fusions co-expressed transiently in N. benthamiana leaf epidermal cells; confocal microscopy 2 d after transformation.
The target in test [4] is nGFP-PHOT2 (Arabidopsis thaliana) (UniProt P93025). Described as above.
Test [5] has as its target PHOT1-cGFP (Arabidopsis thaliana) (UniProt O48963). The description is as above.
The target of test [6] is PHOT2-cGFP (Arabidopsis thaliana) (UniProt P93025). The description is as above.

The chains behind the UniProt entries cited, without tags or fusion partners. Where a name states a change or a piece, a line headed by the entry shows the natural chain unless it says otherwise. Residues count along the entry.
UniProt O48963: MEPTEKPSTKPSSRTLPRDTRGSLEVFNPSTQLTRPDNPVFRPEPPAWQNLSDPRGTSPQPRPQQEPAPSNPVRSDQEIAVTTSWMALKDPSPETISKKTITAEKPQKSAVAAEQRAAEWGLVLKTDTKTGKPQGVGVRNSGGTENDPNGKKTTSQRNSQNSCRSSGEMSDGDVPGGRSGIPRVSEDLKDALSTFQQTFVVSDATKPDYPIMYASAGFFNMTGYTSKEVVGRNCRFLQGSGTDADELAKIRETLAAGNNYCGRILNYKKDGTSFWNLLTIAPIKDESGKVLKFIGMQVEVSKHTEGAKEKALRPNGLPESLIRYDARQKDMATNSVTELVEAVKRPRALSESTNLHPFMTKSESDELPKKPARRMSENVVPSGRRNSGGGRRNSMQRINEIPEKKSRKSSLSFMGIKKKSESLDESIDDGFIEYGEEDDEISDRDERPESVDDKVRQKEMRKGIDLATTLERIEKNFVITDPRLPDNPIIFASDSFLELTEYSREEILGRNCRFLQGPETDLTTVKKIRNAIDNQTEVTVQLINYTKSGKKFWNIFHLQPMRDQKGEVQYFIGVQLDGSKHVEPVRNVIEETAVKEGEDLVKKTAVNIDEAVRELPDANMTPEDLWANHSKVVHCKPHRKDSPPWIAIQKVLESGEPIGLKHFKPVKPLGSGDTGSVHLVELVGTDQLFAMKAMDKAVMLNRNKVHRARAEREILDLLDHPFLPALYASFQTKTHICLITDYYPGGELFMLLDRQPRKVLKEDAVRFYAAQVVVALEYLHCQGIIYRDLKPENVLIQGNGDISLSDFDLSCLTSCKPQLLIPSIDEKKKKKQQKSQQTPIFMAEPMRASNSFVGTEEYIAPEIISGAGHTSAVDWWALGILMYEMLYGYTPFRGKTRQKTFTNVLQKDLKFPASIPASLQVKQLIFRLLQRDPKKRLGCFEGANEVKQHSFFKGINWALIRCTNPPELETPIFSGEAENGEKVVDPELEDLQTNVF
N-terminal PHOT1 fragment (PHOT1N), amino acids 1-619, MYTH fusion: residues 1-619 of O48963
UniProt P93025: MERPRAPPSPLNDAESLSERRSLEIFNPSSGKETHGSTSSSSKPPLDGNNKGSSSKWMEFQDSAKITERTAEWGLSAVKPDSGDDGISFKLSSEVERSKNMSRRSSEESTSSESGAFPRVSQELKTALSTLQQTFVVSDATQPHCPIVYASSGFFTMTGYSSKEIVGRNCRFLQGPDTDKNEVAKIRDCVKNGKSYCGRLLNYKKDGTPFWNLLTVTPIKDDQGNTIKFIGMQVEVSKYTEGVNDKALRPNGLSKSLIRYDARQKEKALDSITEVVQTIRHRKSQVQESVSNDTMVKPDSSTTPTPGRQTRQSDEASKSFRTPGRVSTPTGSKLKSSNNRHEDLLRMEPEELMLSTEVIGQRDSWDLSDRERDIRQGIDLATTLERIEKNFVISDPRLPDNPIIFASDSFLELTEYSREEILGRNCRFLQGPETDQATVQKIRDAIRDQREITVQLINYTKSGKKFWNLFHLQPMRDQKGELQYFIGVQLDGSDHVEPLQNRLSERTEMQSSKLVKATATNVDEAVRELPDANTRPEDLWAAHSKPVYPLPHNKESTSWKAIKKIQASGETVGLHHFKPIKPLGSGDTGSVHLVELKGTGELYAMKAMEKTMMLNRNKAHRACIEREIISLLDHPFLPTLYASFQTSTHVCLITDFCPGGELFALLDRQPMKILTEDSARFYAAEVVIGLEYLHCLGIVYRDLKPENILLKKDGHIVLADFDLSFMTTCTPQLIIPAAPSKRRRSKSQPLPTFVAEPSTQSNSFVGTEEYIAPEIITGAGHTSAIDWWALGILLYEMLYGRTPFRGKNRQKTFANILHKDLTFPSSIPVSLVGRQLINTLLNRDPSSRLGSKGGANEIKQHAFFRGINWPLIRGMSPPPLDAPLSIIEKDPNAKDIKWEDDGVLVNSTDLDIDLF
N-terminal PHOT2 fragment (PHOT2N), amino acids 1-574, MYTH fusion: residues 1-574 of P93025
UniProt Q8GYH7: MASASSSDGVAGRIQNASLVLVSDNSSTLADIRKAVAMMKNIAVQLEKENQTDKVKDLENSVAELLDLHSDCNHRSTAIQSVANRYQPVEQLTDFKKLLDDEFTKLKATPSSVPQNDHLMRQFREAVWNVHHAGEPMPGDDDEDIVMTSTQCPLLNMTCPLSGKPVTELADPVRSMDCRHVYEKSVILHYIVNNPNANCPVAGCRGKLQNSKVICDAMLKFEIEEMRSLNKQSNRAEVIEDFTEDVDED
UniProt Q680Q4: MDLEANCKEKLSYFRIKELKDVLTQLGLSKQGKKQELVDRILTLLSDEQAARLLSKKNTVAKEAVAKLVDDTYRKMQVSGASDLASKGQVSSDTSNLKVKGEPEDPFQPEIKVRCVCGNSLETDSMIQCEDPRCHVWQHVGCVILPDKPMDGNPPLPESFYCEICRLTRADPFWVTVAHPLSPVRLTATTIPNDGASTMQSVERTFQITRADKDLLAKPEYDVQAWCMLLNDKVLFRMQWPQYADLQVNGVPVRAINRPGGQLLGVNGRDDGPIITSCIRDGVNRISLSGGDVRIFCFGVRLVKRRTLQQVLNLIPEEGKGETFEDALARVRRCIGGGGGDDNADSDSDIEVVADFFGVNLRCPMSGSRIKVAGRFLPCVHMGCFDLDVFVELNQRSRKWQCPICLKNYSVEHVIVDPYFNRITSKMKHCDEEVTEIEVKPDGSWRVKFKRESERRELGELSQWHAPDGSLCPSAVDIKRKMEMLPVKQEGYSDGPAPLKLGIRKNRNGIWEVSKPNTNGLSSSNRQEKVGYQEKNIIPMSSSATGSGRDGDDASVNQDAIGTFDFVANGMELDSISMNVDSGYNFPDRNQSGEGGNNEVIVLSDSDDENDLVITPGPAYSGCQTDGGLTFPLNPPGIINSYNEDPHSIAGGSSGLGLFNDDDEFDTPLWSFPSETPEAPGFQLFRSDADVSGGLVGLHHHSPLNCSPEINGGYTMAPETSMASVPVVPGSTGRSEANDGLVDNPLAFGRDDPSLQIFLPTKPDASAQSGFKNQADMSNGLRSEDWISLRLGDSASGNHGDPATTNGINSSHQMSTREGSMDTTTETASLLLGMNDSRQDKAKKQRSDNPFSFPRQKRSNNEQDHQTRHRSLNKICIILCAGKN
UniProt P55852: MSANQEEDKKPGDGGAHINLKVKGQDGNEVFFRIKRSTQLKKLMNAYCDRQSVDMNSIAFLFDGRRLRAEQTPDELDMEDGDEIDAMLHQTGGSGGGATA
UniProt Q9FLP6: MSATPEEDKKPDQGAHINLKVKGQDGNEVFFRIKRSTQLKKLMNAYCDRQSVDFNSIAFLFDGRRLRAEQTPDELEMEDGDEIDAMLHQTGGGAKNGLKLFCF
UniProt Q9FLP5: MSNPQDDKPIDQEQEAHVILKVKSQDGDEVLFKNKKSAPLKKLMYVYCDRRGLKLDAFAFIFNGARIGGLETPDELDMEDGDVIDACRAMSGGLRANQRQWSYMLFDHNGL
UniProt Q8VZI7: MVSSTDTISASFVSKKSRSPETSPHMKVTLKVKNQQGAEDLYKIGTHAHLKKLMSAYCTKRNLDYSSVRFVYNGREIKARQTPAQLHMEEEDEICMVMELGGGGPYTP

These are yes or no findings as the source states them, for the method shown. For some assays here: Binding seen in cells or lysates may run through a third protein. Some entries that bind do so weakly or less than the wild type.

The record followed here is PMC8462379.

In the case of “MMS21, MYTH fusion (from UniProt Q8GYH7 1-249) (enzyme)”, the binding entry in test [1] and in test [2] was “binds weakly” in each case.
Regarding “MMS21-cGFP (from UniProt Q8GYH7 1-249) (enzyme)”, the binding result in test [3] and in test [4] was “binds” each time.
With “SIZ1, MYTH fusion (from UniProt Q680Q4 1-884) (enzyme)”, the binding entry in test [1] and in test [2] was “binds weakly” each time.
As to nGFP-SUMO1 (from UniProt P55852 1-100), the binding result in test [5] and in test [6] was “binds” in each case.
nGFP-SUMO2 (from UniProt Q9FLP6 1-103): the binding entry in test [5] and in test [6] was “binds” each time.
Regarding nGFP-SUMO3 (from UniProt Q9FLP5 1-111), the binding entry in test [5] and in test [6] was “binds” in each case.
Turning to nGFP-SUMO5 (from UniProt Q8VZI7 1-108), the binding result in test [5] and in test [6] was “no binding” each time.
